# From the supplement of paper PMC11417369
# ± gives the standard deviation of the averaged measurements. Some of the results follow.
# Tested on: PfAP2-I AP2 domain 3 (GST-tagged)
# Assay: gcPBM binding intensity (ln(normalized median fluorescence intensity)); higher = stronger DNA binding
# Method in brief: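 DNA-binding domains from P. falciparum, fused to GST and produced in E. coli, were put on an Agilent 4 × 180k double-stranded probe array for 1 h in 1× PBS holding 1% milk, 0.2 mg/ml BSA, 0.5% salmon testes DNA and 0.03% Triton X-100. Probes were primer-extended, 36 bp long and drawn from intergenic genomic regions, with negative controls included. After Alexa488 anti-GST antibody detection and a 488 nm scan, binding intensity was set as the highest Masliner-normalised natural-log median intensity across replicate spots of either probe orientation.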
row,Sequence,gcPBM binding intensity (ln)
1,CCCATTTTGACAAAAAGTACAAGTTCAGGTTTTATA [XGTACX_site1532],7.83 ± 0.35
2,TTTCTCTTCTAAACATGTACAAAAATACATACATAT [XGTACX_site1365],7.96 ± 0.49
3,AAAAATTAAAATATTATAGTTGAAACTTTTATAAAT [TGCATGCA_negctrl_site454],7.18 ± 0.42
4,ATATATATATATATATGTACATACATACATAGAACT [XGTACX_site2214],9.58 ± 0.49
5,TCCCATTTATTATGGTGTACAATTAATTAAACATAA [XGTACX_site750],8.06 ± 0.12
6,TATATTTATTCCTGTTGTACTTTATATTATTTTTTT [XGTACX_site1415],8.14 ± 0.47
7,CAAAAACATACCTACACACACAATATGTATTTATAA [CACACA_site5862],7.82 ± 0.35
8,AAATGAATATTCATAGTGCAATATATAAATGAAAAT,11 ± 0.38
9,TTTAATTATTAGTGTGCACACAACTATGAGTTTTTA [CACACA_site8997],9.65 ± 0.28
10,AATTACATTCAATTCTGTACTAATAGTAATTCAAAA [XGTACX_site7419],7.88 ± 0.54
11,ATTTGCAGTATTTCGGAACACACAAACATAAATATG [CACACA_site8726],8.05 ± 0.57
12,TATAAAAAATTCTTCCTTATTTTATGATATATATAT [TGCATGCA_negctrl_site57],8.665 ± 0.078
13,AAATATATTTCACGCACACACACCCCAAATAAATTT [CACACA_site3820],8.49 ± 0.58
14,TATTCCTATAAAAAAACACACACATATAAATATATA [CACACA_site8727],7.58 ± 0.33
15,AAGTATTTTTTTACATGTACATATATATATATATAT [XGTACX_site5065],9.4 ± 0.56
16,AAATAGATAAGTAGGACACACATATATATATATTAA [CACACA_site1862],7.72 ± 0.54
17,ATATTTCAAAATGAAAGTACATATAAAAATTATACA [XGTACX_site3787],7.5 ± 0.35
18,TTTTTCATATGACACACACACAAAAATAATGTGGAA [CACACA_site7692],8.09 ± 0.33
19,AAATGAACACGAAAGGAAAAAAAAATATATATATAT [CACACA_negctrl_site267],9.4 ± 0.16

row,Sequence,gcPBM binding intensity (ln)
1,TCATTTTATTATTCTACACACTTATCTATAATTATA [CACACA_site34],8.12 ± 0.65
2,ATAATTACATAGATTGGTACACATTTTTGATTGTAT [XGTACX_site3802],7.71 ± 0.44
3,GTACAAATGATTAATCCTTTACTTATATATATATAT [XGTACX_negctrl_site138],9.06 ± 0.26
4,TTAAAAATGTGTGTGCGTACATAATATTTCGAAAAA [XGTACX_site8197],8.38 ± 0.38
5,CATTTTTTTTTATAAATACACACGTACGGGTGCATA [CACACA_site1569],8.54 ± 0.54
6,TTCTGGCAAAATAACACACACATATATTTTATATAC [CACACA_site3242],8.6 ± 0.57
7,GAACATTTACGCCCCACACACCTACCAACAAAAAAA [CACACA_site7746],8.99 ± 0.014
8,TTCTTAAAAAAAAATAAAATAAAAAAAAAAATAAAA [CACACA_negctrl_site99],7.53 ± 0.42
9,AAAAAAAAAAAAAACACACACACACGCATACAAAAT [CACACA_site6794],8.43 ± 0.39
10,ATATTTTTCTTAAGTACACACTAAATAGAAACTAAA [CACACA_site4191],8.08 ± 0.3
11,ATTAATTATATAATATGTACATATTACAAATATATA [XGTACX_site1478],7.79 ± 0.23
12,TTATATCTTATAAAATGTACATAAAATATATAATAT [XGTACX_site7647],7.89 ± 0.12
13,AATAATATAACAGAACAAAACTAAATATACACATAT [TGCATGCA_negctrl_site31],7.93 ± 0.64
14,TATTTCATAATAAATTGTACGCGTAGAAAACCATGA [XGTACX_site7506],8.43 ± 0.23
15,CTAATTAATGGGTACATACACACATATATACATACA [CACACA_site743],8.07 ± 0.2
16,ATATTAAAATTAAACGCATGCATATATTATAAAAGA [TGCATGCA_site231],7.8 ± 0.68
17,TTCTGTATAACACAAATTTTTTTTTATTCACTCTGT [TGCATGCA_negctrl_site410],7.82 ± 0.59
18,TTTTTATCAAATAAATGTACACATATTAAATGAAAT [XGTACX_site555],7.83 ± 0.3
19,AACACTTCATACACGTGTACAAATATAATATAGACA [XGTACX_site5671],8.49 ± 0.16

row,Sequence,gcPBM binding intensity (ln)
1,GGAAATAATATTATTACACACCAAAATGTATAAAAA [CACACA_site4036],8.36 ± 0.85
2,AAAATATTCACGTGTACATATATATATATATATTAT [TGCATGCA_negctrl_site192],8.22 ± 0.35
3,ATATTTAAAAAATGATGTACAAAAATGTAGTCACAC [XGTACX_site6208],8.04 ± 0.32
4,GAAATTAAATGACATACACACTATATTATAGATTTT [CACACA_site7468],7.62 ± 0.54
5,TATTTTAATGAATTCACACATATAATTTATTTTATA [CACACA_site4538],7.49 ± 0.6
6,GACATAAAATTCAAAGTGCATAAATAAAATAAACCC,10.4 ± 0.2
7,TTTTTTTTTTTTTTCTGTACAAATTAAATCTACATA [XGTACX_site8285],8.15 ± 0.57
8,AATATATATTAATAAAGTACAGGAAATATTTTTACC [XGTACX_site7052],8.13 ± 0.48
9,AAAATACATAGACACACACACACACGGATATAAATA [CACACA_site7643],8.05 ± 0.43
10,ATATATATATATAAATGTACAGATATATTTTTTATT [XGTACX_site5445],9.05 ± 0.22
11,TTTAATTTGATAGACACATGCACACGTGCAATACTT [TGCATGCA_site777],10.95 ± 0.021
12,TACTAAAAAATATAAACACACATATATTTTACATAT [CACACA_site2042],7.59 ± 0.35
13,ATAGTATCTGGTAGCTGTACGAGTCGTAGAGTGTAA [XGTACX_site4936],8 ± 0.49
14,ATATAAAACTAATTTCTTTTTCTCCTTTTATTTTGT [CACACA_negctrl_site1251],7.8 ± 0.59
15,TTTGTAAGAAATAAATGTACAAAAATTAATTTTTAT [XGTACX_site8983],7.68 ± 0.54
16,TGATTAATAATTTTCTTCATACATTAAACATCTTTT [TGCATGCA_negctrl_site342],7.31 ± 0.68
17,TTTTTTTTTTCATTAACACACATAAATATATATATA [CACACA_site5759],9.015 ± 0.021
18,CACTAATAGTGGATTACACACATATATCTGTATTTA [CACACA_site5403],8.27 ± 0.45
